# Assay results as given in the supplement of paper PMC3334620.
# In all, about 33,000 sequences were measured (“E-score (-0.5 to 0.5)”: median about -0.021, highest 2% from about 0.32 on). The list shows a part of the results.
# Molecular target: T1, Zap1 (UniProt P47043)
# T1 sequence: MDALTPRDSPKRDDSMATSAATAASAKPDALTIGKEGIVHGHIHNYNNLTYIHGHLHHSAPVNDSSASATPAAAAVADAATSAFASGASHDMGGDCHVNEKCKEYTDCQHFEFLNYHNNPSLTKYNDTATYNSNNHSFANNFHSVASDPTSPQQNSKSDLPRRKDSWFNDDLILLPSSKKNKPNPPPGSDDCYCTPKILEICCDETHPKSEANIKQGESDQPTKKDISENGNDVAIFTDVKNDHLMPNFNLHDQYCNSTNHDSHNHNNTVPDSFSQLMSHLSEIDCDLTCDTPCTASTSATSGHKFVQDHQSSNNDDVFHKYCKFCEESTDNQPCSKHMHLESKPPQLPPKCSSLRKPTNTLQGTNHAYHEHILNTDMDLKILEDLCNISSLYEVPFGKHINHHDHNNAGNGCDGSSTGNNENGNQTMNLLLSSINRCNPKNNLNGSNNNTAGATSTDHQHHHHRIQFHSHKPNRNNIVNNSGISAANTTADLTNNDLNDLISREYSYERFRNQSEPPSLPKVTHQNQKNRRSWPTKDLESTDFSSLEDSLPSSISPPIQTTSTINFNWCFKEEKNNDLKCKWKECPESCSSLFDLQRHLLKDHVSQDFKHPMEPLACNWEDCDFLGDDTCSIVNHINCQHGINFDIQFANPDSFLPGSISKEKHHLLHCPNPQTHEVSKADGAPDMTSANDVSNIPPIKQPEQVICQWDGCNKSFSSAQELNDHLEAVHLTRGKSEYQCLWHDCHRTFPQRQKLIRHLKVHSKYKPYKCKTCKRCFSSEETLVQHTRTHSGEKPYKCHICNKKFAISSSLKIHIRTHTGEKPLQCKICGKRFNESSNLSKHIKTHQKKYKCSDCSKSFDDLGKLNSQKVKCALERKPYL
# Assay: PBM E-score (8-mer binding enrichment) (E-score (-0.5 to 0.5)); higher = stronger / more preferred TF binding; most listed sequences are background and not binding sites
# Conditions: protein concentration: 200 nM; construct: GST-full length
# Protocol: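 Universal 'all 10-mer' protein binding microarrays (Agilent AMADID 015681) probed with GST-tagged S. cerevisiae TFs (full-length or DBD) made by in vitro transcription/translation (PURExpress), about 100-200 nM. Bound TF was detected with fluorescent anti-GST. Each ungapped 8-mer (which stands for itself and its reverse complement) is scored by the PBM enrichment score (E-score), a modified Wilcoxon-Mann-Whitney statistic from -0.5 to +0.5, computed with the Universal PBM Analysis Suite. Scale: above 0.35 generally sequence-specific binding.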
row,Sequence,PBM E-score
1,ACCGTCAA,0.121
2,CGTTCAGC,-0.0955
3,AACCGCGA,0.367
4,AGGGCGAC,-0.0254
5,GGGATGAC,0.0333
6,GAACATAA,0.185
7,CGTCATAG,0.082
8,TCACCGCA,0.0198
9,CCAGCTGG,-0.125
10,ATGGCCGA,0.123
11,GGCGGCAA,-0.00175
12,GCCTAAAC,-0.0306
13,CGGCCTGC,-0.215
14,TCGGGTAA,0.24
15,AGCGCGTG,0.0374
16,GCGGAGAC,-0.0389
17,AGTAGTGC,-0.141
18,GTGTCTGA,-0.113
19,CGGAAGCC,-0.219
20,GCAACATA,-0.139
21,AGTGGCGA,-0.0531
22,GCGAAGAA,-0.0184
23,GTGTCCTA,0.135
24,ATTCCACG,0.05
25,TGACACCA,-0.0107

row,Sequence,PBM E-score
1,TCCGCACA,0.029
2,CGTGGCGA,-0.0347
3,ATAAAAAA,0.162
4,CACTCCTA,-0.126
5,AACGTTAG,-0.0828
6,GGGTACTA,0.335
7,CGGTTCAC,-0.082
8,CTAAATTC,-0.0115
9,GACTAAGA,0.0168
10,AAGACGTA,0.00703
11,AAGCGGAT,-0.0563
12,ATGAGGTA,0.324
13,ATCAGTTA,0.124
14,ACGATGAT,-0.113
15,AGGTGGAT,-0.0931
16,CTTTTCTA,-0.00713
17,CTTCTAAA,-0.0443
18,TAGACTGA,-0.182
19,GTTCGGCA,-0.0616
20,CGATCCAG,-0.184
21,ACTCACCA,0.00662
22,ACGCTGAG,-0.208
23,AAGACCCC,0.323
24,AAAATACC,0.264
25,TAATGGAA,0.126

row,Sequence,PBM E-score
1,CGAATCAC,-0.12
2,ATTTGAGA,0.0352
3,GTGTTCTA,0.183
4,ACGGCGTA,-0.228
5,AAGGAACC,0.248
6,AAAAGTAT,0.0108
7,AGAAGTGC,-0.158
8,AATCAACC,0.13
9,AGCAAGCT,-0.175
10,CTAAGAGC,-0.108
11,AACCTCGA,0.367
12,ATCCATTG,-0.0306
13,GGCATGGA,-0.228
14,AGCGCCAG,-0.256
15,CTGAATGC,-0.212
16,CCTGTCAA,0.0108
17,ACTCAGGC,-0.0941
18,GTTATGTA,0.12
19,AGCACCCT,0.317
20,AGGAGCTG,-0.185
21,AAGGGCGA,-0.128
22,CACACTCC,-0.152
23,ACAGGGCG,-0.107
24,TCCAGGGA,-0.238
25,ATCCCGTG,0.0154

row,Sequence,PBM E-score
1,AACATATC,-0.00354
2,CGGGAGAC,-0.169
3,GCTCGGGA,-0.401
4,ATGTGTGA,0.00827
5,ATCTTTCC,-0.147
6,GATACGTA,-0.0479
7,AAGTAATC,0.119
8,CCATGCCA,-0.0723
9,CAAGGTCA,0.386
10,ATTCTCGC,-0.317
11,AGTGAAAG,0.0651
12,AGGTGCCC,0.0072
13,CAGGATAG,0.106
14,CAAACTAG,0.0331
15,ATGAACAT,0.1
16,GAACAGTC,-0.129
17,ATCTTGGC,-0.329
18,AGAAAGAG,-0.115
19,CCCGTTTC,-0.0978
20,CGCCCAAG,-0.0736
21,TCGAATAA,0.0261
22,CCAGACAC,-0.0801
23,CTCGGTCC,-0.103
24,CATTACCC,0.282
25,CGTGATAG,-0.0351

row,Sequence,PBM E-score
1,CGGTTACA,0.411
2,CTAAACTA,0.144
3,CATCGCCC,-0.2
4,ACAGGCTA,-0.102
5,TGATTAAA,0.144
6,ACCGAGAT,0.0357
7,ATTTTAAG,0.0616
8,AGGTAACG,0.19
9,AAGGGCGT,-0.0596
10,CATTTTCG,0.0212
11,CACTCTCG,-0.0581
12,GGATAGAA,0.0515
13,CCTGCGAG,-0.0249
14,GCTAGACA,-0.156
15,GCCCTGCA,-0.195
16,CGGCTGTA,-0.148
17,CTCCTGAA,0.0319
18,AGACGTAA,0.0862
19,AACCGAAG,0.0612
20,AAGATACC,0.214
21,ACGACCGG,-0.0537
22,AAACTGAA,0.0737
23,ACTTATTG,0.0522
24,AAGGGTTC,0.339
25,ATTATGTG,0.119

row,Sequence,PBM E-score
1,ACTTCGCC,-0.172
2,ATGTCGTC,-0.15
3,GGGCCTAA,-0.0919
4,CGAGTTCA,0.125
5,AAGGATAC,0.064
6,CCACGATA,0.0381
7,CCTTTACA,0.189
8,CTCTAATA,0.0821
9,ACCTCGTG,0.348
10,AACAGCCA,-0.0164
11,ATTGGAAC,0.133
12,AATGACCT,0.393
13,GTGTGGAA,-0.0518
14,CCATGGAA,0.128
15,CTCTGTTA,-0.0886
16,CTACATCA,0.0866
17,AGGTGATG,0.117
18,GAAAGGAA,-0.0712
19,TAGTATCA,0.155
20,GCACTGTA,0.0139
21,CTGACCAG,0.185
22,ATAGACGG,-0.0589
23,AGCGAGAG,-0.00964
24,AGTAGAGG,-0.196
25,AGTTACGC,-0.0283

row,Sequence,PBM E-score
1,GCCACGAC,0.0554
2,TAACTGTA,0.174
3,AAAGATAT,0.0932
4,ACCTAATC,0.158
5,GAATGCCC,-0.167
6,ATGTGGAG,-0.0323
7,CACGCCCG,-0.108
8,CCAGATTC,-0.0471
9,TCGCAGCA,-0.0698
10,GAAACATC,-0.0445
11,ATTGCGCG,0.0701
12,GACACGGC,-0.145
13,GGAAGCAA,-0.13
14,ATCATTTA,0.091
15,CATAAGGC,-0.103
16,AATACAGT,0.0335
17,CTCACGTA,-0.0614
18,ACATACAA,0.0887
19,GACCTGCA,-0.0408
20,AAGTTTAA,0.0822
21,AAAGGGTT,0.396
22,CGAACGTC,-0.15
23,TACCCCAA,0.363
24,CACTCGGG,-0.0643
25,CCCCAGCG,-0.0867

row,Sequence,PBM E-score
1,AAACCCTG,0.337
2,AGGTGCTG,0.0105
3,AAAATTAG,-0.0229
4,AACGAGAC,-0.15
5,CATACAAA,0.168
6,CATCCGTC,-0.194
7,CGACAATA,0.0243
8,AGATTGCC,-0.0987
9,GTGATACA,0.0362
10,TCGCATAA,0.177
11,ATGCCTGA,-0.181
12,ATTAGCCC,-0.24
13,CTCCCAAG,-0.0957
14,GTCCTTCA,0.176
15,AAGGACTT,-0.147
16,AGCCTCAT,-0.1
17,ATCTCATC,-0.147
18,AAACTCTC,-0.0702
19,CGAACCCA,-0.118
20,CATGGTTA,0.415
21,AGTGTGAG,-0.096
22,CTGTACGA,-0.172
23,CAAATCCA,0.0801
24,CGCCACCG,-0.0683
25,AAGGGTCT,0.136

row,Sequence,PBM E-score
1,ACCAGTAG,-0.00366
2,CTTGGATA,-0.0692
3,ATTGGCGA,-0.121
4,GTTTAGGA,-0.105
5,AGAGCGGA,-0.2
6,AATCACCT,0.215
7,AGGACGTC,-0.0914
8,AGCAGAGC,-0.285
9,ACAATGCC,-0.126
10,GCCTTGCA,-0.145
11,ATAAAGGG,0.113
12,AGCATCTC,-0.169
13,CCTCTAAA,0.0486
14,GCACAAAA,0.214
15,CACCATCG,-0.208
16,ACCCTCTC,0.121
17,GACTGTAC,-0.147
18,CTCGCAAA,-0.0959
19,GTCCCTAA,0.109
